Source: patent publication US5898069A, “Phosphate assay” (Medical Research Council, priority 1993, dated 1999)

target: PBP mutant A57C (Escherichia coli, UniProt P0AG82, A82C); details: ~5 μM labelled PBP in 10 mM Tris.HCl pH 8.0, 50 μM Pi added
Experimental: (§1) Other fluorescent labels were attached in a similar way to PBP mutants, with minor modifications to the procedure, such as the ratio of label to the protein, reaction time, and pH.
(§2) Measurements Absorbance spectra were obtained on a Beckman DU70 spectrophotometer. Fluorescence measurements were obtained on a Farrand Mkl or a SLM 8000 photon counting spectrofluorimeter. Stopped flow experiments were carried out in a HiTech PQ/SF-53 apparatus, with a mercury lamp and HiTech IS-2 software.
(§3) PBP was purified from the periplasm of E. coli strain ANCC75, overexpressing phos in a multicopy plasmid (Morita et al., 1983). A 4-liter culture gave 400-600 mg of PBP with a purity greater than 95% by polyacrylamide gel electrophoresis. The wild-type protein contains no cysteines and so fluorescent groups were attached initially via amines or carboxyls. All attempts to label the wild-type protein with a fluorophore gave at best a 15% fluorescence change on Pi binding, about the same as that observed for the intrinsic tryptophan fluorescence. This is possibly due to relatively non-specific and multiple labeling To ensure that a single label could be attached, mutant PBP proteins were obtained by replacing single residues by cysteine, using oligonucleotide directed mutagenesis. The positions were chosen such that the residues were at the edge of the Pi -binding cleft described by Luecke & Quiocho (1990). These would be expected to experience a significant change in environment on Pi binding, although the structure is known only for the Pi -bound form of PBP. In addition, the mutated residues were not directly involved in Pi binding as elucidated by Luecke & Quiocho (1990). One combination of mutant (A1297C) and fluorophore (MDCC; FIG. 1) gave a large fluorescence change with Pi, although several closely related fluorophores, including CPM and DACM, gave much smaller, changes. Most other labeled mutants were not tested to determine whether the lack of Pi sensitivity is because they lacked Pi binding, or because the fluorophore is insensitive to the putative conformation change. Serine 139 is involved in Pi binding (Luecke & Quiocho, 1990), so the labeled S139C mutant PBP might be expected to be deficient in Pi binding: this labeled mutant was therefore used as a null control. The A197C mutant was overproduced to the same extent as wild-type protein, so large amounts of the labeled protein could be obtained.
(§4) The conditions for measurement of fluorescence were ~5 μM
(§5) labelled PBP in 10 mM Tris.HCl pH 8.0, to which 50 μM Pi was
(§6) added. Excitation and emission were at the maximum wavelength. DEM is […]

Chain of PBP mutant A57C (P0AG82 26-346 A82C): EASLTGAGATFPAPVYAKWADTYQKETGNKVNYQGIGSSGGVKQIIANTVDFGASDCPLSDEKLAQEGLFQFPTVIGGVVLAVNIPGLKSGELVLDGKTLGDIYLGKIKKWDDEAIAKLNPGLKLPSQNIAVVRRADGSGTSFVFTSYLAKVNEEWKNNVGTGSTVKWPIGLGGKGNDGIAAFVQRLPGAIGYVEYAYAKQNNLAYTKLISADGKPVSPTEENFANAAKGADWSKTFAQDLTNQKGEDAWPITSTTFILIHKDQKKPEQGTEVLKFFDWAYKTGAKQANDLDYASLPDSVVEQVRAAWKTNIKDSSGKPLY

Row | Compound | percent increase in fluorescence on adding Pi [%]
1 | C=CC(=O)c1ccc2cc(N(C)C)ccc2c1 [Acrylodan] | -3
2 | CCN(CC)c1ccc2c(C)c(-c3ccc(N4C(=O)C=CC4=O)cc3)c(=O)oc2c1 [CPM, 7-diethylamino-3-[4'-(1-maleimidyl)phenyl]-4-methylcoumarin] | -4

target: PBP mutant A9C (Escherichia coli, UniProt P0AG82, A34C); details: ~5 μM labelled PBP in 10 mM Tris.HCl pH 8.0, 50 μM Pi added
Experimental: as §1, §2, §3, §4, §5, §6

Chain of PBP mutant A9C (P0AG82 26-346 A34C): as the sequence (P0AG82 26-346 A82C) above, with A9C, C57A counted along it

Row | Compound | percent increase in fluorescence on adding Pi [%]
3 | C=CC(=O)c1ccc2cc(N(C)C)ccc2c1 [Acrylodan] | 10
4 | CN(C)c1cccc2c(S(=O)(=O)N3CC3)cccc12 [Dansyl aziridine] | 20
5 | CN(C)c1cccc2c(S(=O)(=O)NCCN3C(=O)C=CC3=O)cccc12 [DEM] | 0
6 | CCN(CC)c1ccc2c(C)c(-c3ccc(N4C(=O)C=CC4=O)cc3)c(=O)oc2c1 [CPM, 7-diethylamino-3-[4'-(1-maleimidyl)phenyl]-4-methylcoumarin] | 15

target: PBP mutant G140C (Escherichia coli, UniProt P0AG82, G165C); details: ~5 μM labelled PBP in 10 mM Tris.HCl pH 8.0, 50 μM Pi added
Experimental: as §1, §2, §3, §4, §5, §6

Chain of PBP mutant G140C (P0AG82 26-346 G165C): as the sequence (P0AG82 26-346 A82C) above, with C57A, G140C counted along it

Row | Compound | percent increase in fluorescence on adding Pi [%]
7 | C=CC(=O)c1ccc2cc(N(C)C)ccc2c1 [Acrylodan] | 0
8 | CN(C)c1cccc2c(S(=O)(=O)N3CC3)cccc12 [Dansyl aziridine] | 0
9 | CN(C)c1cccc2c(S(=O)(=O)NCCN3C(=O)C=CC3=O)cccc12 [DEM] | 0
10 | CCN(CC)c1ccc2c(C)c(-c3ccc(N4C(=O)C=CC4=O)cc3)c(=O)oc2c1 [CPM, 7-diethylamino-3-[4'-(1-maleimidyl)phenyl]-4-methylcoumarin] | -10

target: PBP mutant S139C (Escherichia coli, UniProt P0AG82, S164C); details: ~5 μM labelled PBP in 10 mM Tris.HCl pH 8.0, 50 μM Pi added
Experimental: as §1, §2, §3, §4, §5, §6

Chain of PBP mutant S139C (P0AG82 26-346 S164C): as the sequence (P0AG82 26-346 A82C) above, with C57A, S139C counted along it

Row | Compound | percent increase in fluorescence on adding Pi [%]
11 | C=CC(=O)c1ccc2cc(N(C)C)ccc2c1 [Acrylodan] | -15
12 | CCN(CC)c1ccc2cc(C(=O)NCCN3C(=O)C=CC3=O)c(=O)oc2c1 [MDCC, N-[2-(1-Maleimidyl)ethyl] 7-diethylaminocoumarin-3-carboxamide] | 0
13 | CN(C)c1cccc2c(S(=O)(=O)NCCN3C(=O)C=CC3=O)cccc12 [DEM] | 0
14 | Cc1c(N2C(=O)C=CC2=O)c(=O)oc2cc(N(C)C)ccc12 [DACM, 7dimethylamino-3-(1-maleimidyl)-4-methylcoumarin] | 10
15 | CCN(CC)c1ccc2c(C)c(-c3ccc(N4C(=O)C=CC4=O)cc3)c(=O)oc2c1 [CPM, 7-diethylamino-3-[4'-(1-maleimidyl)phenyl]-4-methylcoumarin] | 0

target: PBP mutant A197C (Escherichia coli, UniProt P0AG82, A222C); details: ~5 μM labelled PBP in 10 mM Tris.HCl pH 8.0, 50 μM Pi added
Experimental: Labelling A197C PBP with 7-diethylamino-3-[4'-(1-maleimidyl)phenyl]-4-methylcoumarin (CPM) 100 μM A197C and 400 μM CPM were incubated in 8 ml of 10 mH Tris-HCl, pH 8.1 at room temperature for 4 h on an end-over-end mixer. The protein was purified on a Biogel P4 gel filtration column (15×70 cm) eluting with 10 mM Tris.HCl pH 8.0. The protein was filtered through a 0.2μm pore size membrane filter (Acrodisc 13, Gelman), and loaded onto a 10 ml Q-Sepharose column, equilibrated with 10 mM Tris.HCl, pH 7.6, 1 mM MgCl2. After washing, the protein was eluted by a 200 mL gradient of 0-50 mM NaCl in this buffer. The purity of the labelled protein was checked by its fluorescence change with Pi, by its absorbance spectrum and by SDS gel electrophoresis with both Coomassie blue staining and fluorescence visualisation. The yield was typically about 50% of the starting material.
Labelling A197C PBP with N-[2-(1-maleimidyl)ethyl]-7-diethylaminocoumarin-3-carboxamide (MDCC) 100 μM A197C and 500 μM MDCC (from a 25 mM solution in dimethylformamaide) were incubated in 8 ml of 20 mM Tris-HCl, pH 8.1 at room temperature for 4 h on an end-over-end mixer. The protein was filtered through a 0.2 μm pore size membrane filter (Acrodisc 13, Gelman) and purified on a Biogel P4 gel filtration column (1.5×70 cm) eluting with mM Tris-HCl, pH 8.0. The protein was loaded onto a 25 ml Q-Sepharose column, equilibrated with 10 mM Tris-HCl, pH 7.6, 1 mM MgCl2. After washing, the protein was eluted by a 200 mL gradient of 0-50 mM NaCl in this buffers. The purity of the labeled protein was checked by its fluorescence change with Pi, by its absorbance spectrum and by SDS gel electrophoresis with both Coomassie blue staining and fluorescence visualization. The yield was typically ~50% of the starting material. The concentration of the labeled protein was determined by the absorbance at 280 nm, after correcting for the absorbance due to the label (0.164 of that at 430 nm). The spectrum of the label was assumed to be the same as that determined for the adduct of MDCC with dithiothreitol.
as §2
PBP was purified from the periplasm of E. coli strain ANCC75, overexpressing phos in a multicopy plasmid (Morita et al., 1983). A 4-liter culture gave 400-600 mg of PBP with a purity greater than 95% by polyacrylamide gel electrophoresis. The wild-type protein contains no cysteines and so fluorescent groups were attached initially via amines or carboxyls. All attempts to label the wild-type protein with a fluorophore gave at best a 15% fluorescence change on Pi binding, about the same as that observed for the intrinsic tryptophan fluorescence. This is possibly due to relatively non-specific and multiple labeling To ensure that a single label could be attached, mutant PBP proteins were obtained by replacing single residues by cysteine, using oligonucleotide directed mutagenesis. The positions were chosen such that the residues were at the edge of the Pi -binding cleft described by Luecke & Quiocho (1990). […] One combination of mutant (A1297C) and fluorophore (MDCC; FIG. 1) gave a large fluorescence change with Pi, although several closely related fluorophores, including CPM and DACM, gave much smaller, changes. […]

Chain of PBP mutant A197C (P0AG82 26-346 A222C): as the sequence (P0AG82 26-346 A82C) above, with C57A, A197C counted along it

Row | Compound | percent increase in fluorescence on adding Pi [%]
16 | C=CC(=O)c1ccc2cc(N(C)C)ccc2c1 [Acrylodan] | 0
17 | CCN(CC)c1ccc2cc(C(=O)NCCN3C(=O)C=CC3=O)c(=O)oc2c1 [MDCC, N-[2-(1-Maleimidyl)ethyl] 7-diethylaminocoumarin-3-carboxamide] | 405
18 | Cc1c(N2C(=O)C=CC2=O)c(=O)oc2cc(N(C)C)ccc12 [DACM, 7dimethylamino-3-(1-maleimidyl)-4-methylcoumarin] | 34
19 | CCN(CC)c1ccc2c(C)c(-c3ccc(N4C(=O)C=CC4=O)cc3)c(=O)oc2c1 [CPM, 7-diethylamino-3-[4'-(1-maleimidyl)phenyl]-4-methylcoumarin] | 65
20 | O=C1C=CC(=O)N1c1ccc(Nc2ccc3cc(S(=O)(=O)O)ccc3c2)cc1 [MIANS, 2[4(1-maleimidyl)anilino]naphthalene6-sulfonic acid] | 20

target: T1, PBP mutant D292C (Escherichia coli, UniProt P0AG82, D317C); type: binding, E. coli; details: ~5 μM labelled PBP in 10 mM Tris.HCl pH 8.0, 50 μM Pi added
T1 construct: from the Nterminus of the mature protein; made in house; host or cells: E. coli strain ANCC75, plasmid pSN5182/N, periplasm
Description: (e) Using the Pi mop, the fluorescence change was 65%.

T1 sequence (P0AG82 26-346 D317C): as the sequence (P0AG82 26-346 A82C) above, with C57A, D292C counted along it

Row | Compound | percent increase in fluorescence on adding Pi [%]
21 | C=CC(=O)c1ccc2cc(N(C)C)ccc2c1 [Acrylodan] | 19
22 | CN(C)c1cccc2c(S(=O)(=O)N3CC3)cccc12 [Dansyl aziridine] | 4
23 | CCN(CC)c1ccc2cc(C(=O)NCCN3C(=O)C=CC3=O)c(=O)oc2c1 [MDCC, N-[2-(1-Maleimidyl)ethyl] 7-diethylaminocoumarin-3-carboxamide] | -2
24 | Cc1c(N2C(=O)C=CC2=O)c(=O)oc2cc(N(C)C)ccc12 [DACM, 7dimethylamino-3-(1-maleimidyl)-4-methylcoumarin] | 0
25 | O=C1C=CC(=O)N1c1ccc(Nc2ccc3cc(S(=O)(=O)O)ccc3c2)cc1 [MIANS, 2[4(1-maleimidyl)anilino]naphthalene6-sulfonic acid] | 21
26 | CCN(CC)c1ccc2c(C)c(-c3ccc(N4C(=O)C=CC4=O)cc3)c(=O)oc2c1 [CPM] | -6
